{
  "source": "PubChem BioAssay AID248",
  "about": "(DTP/NCI, 2004)",
  "tested_on": "L1210 leukemia ip in BDF1 mice, survival T/C",
  "assay": "NCI In Vivo Anticancer Drug Screen. Data for tumor model L1210 Leukemia (intraperitoneal) in B6D2F1 (BDF1) mice",
  "conditions": "vehicle: saline, higher = longer survival",
  "note": "Toxic doses and inconclusive results are not listed. Certain results were filed several times, with different values. The list is limited to them. The source may hold further records. Results that share an entry differ, and nothing given here explains why; they may come from other doses, times, organisms or constructs than stated.",
  "data": [
    {"smiles": "CN(N=O)C(N)=O", "values": [
      {"measurement": "T/C", "setting": "endpoint: median survival time, dose: 25.0 mg/kg/injection, schedule: Q01DX017 (ip)", "result": "105 % of control and 172 % of control"}
    ]},
    {"smiles": "COC(=O)[C@@H](O)[C@](O)(CCC(C)C)C(=O)O[C@@H]1C(OC)=C[C@]23CCCN2CCc2cc4c(cc2[C@H]13)OCO4", "values": [
      {"measurement": "T/C", "setting": "endpoint: mean survival time, dose: 16.0 mg/kg/injection, schedule: Q01DX009 (ip)", "result": "110 % of control and 150 % of control"}
    ]}
  ]
}
